In article PMC4335499 one finds binding data, which are given here for 1 molecule.

Results are given in words; binding and its absence hold for the method and conditions named. Some binding calls cover weakened binding; strength is not graded here.

Holding throughout (assay): two-hybrid; Pab1/PABP1 constructs fused to the Gal4 DNA-binding domain (pOBD2), eIF4G fragments fused to the Gal4 activation domain (pOAD); yeast strain PJ694a; HIS3 reporter; cells spotted in a dilution series on synthetic complete plates lacking leucine and tryptophan, with or without histidine, 30°C, three days
The target in test [1] is Pab1 RRM2 (amino acids 123-204) L186M (S. cerevisiae) (UniProt P04147).
The target of test [2] is Pab1 RRM2 (amino acids 123-204) A141D (S. cerevisiae) (UniProt P04147).
Test [3] concerns the target Pab1 amino acids 1-204 (RRM1-RRM2) (S. cerevisiae) (UniProt P04147).
Test [4] concerns the target Pab1 RRM2 (amino acids 123-204) [D184E, A185K, L186M] (S. cerevisiae) (UniProt P04147).
Test [5] addresses Pab1 RRM2 (amino acids 123-204) E181R (S. cerevisiae) (UniProt P04147).
For test [6], the target named is Pab1 RRM2 (amino acids 123-204) A199E (S. cerevisiae) (UniProt P04147).
The target of test [7] is Pab1 RRM2 (amino acids 123-204) D138T (S. cerevisiae) (UniProt P04147).
In test [8] the target is Pab1 RRM2 (amino acids 123-204) K180E (S. cerevisiae) (UniProt P04147).
Test [9] has as its target Pab1 RRM2 (amino acids 123-204) Y197N (S. cerevisiae) (UniProt P04147).
The target of test [10] is Pab1 RRM2 (amino acids 123-204) [K180E, E181R] (S. cerevisiae) (UniProt P04147).
Test [11] addresses Pab1 RRM2 (amino acids 123-204) Y197V (S. cerevisiae) (UniProt P04147).
The target in test [12] is Pab1 RRM2 (amino acids 123-204) D184E (S. cerevisiae) (UniProt P04147).
The target in test [13] is Pab1 RRM2 (amino acids 123-204) S155V (S. cerevisiae) (UniProt P04147).
Test [14] has as its target Pab1, full length (amino acids 1-578 as printed) (S. cerevisiae) (UniProt P04147).
Test [15] concerns the target Pab1 RRM2 (amino acids 123-204) K156N (S. cerevisiae) (UniProt P04147).

B1: yeast eIF4G2 N-terminus (amino acids 1-341) (domain or fragment, UniProt P39936 1-341)
chain: MTDQRGPPPPHPQQANGYKKFPPHDNQYSGANNSQPNNHYNENLYSAREPHNNKQYQSKNGKYGTNKYNNRNNSQGNAQYYNNRFNNGYRLNNNDYNPAMLPGMQWPANYYAPQMYYIPQQMVPVASPPYTHQPLNTNPEPPSTPKTTKIEITTKTGERLNLKKFHEEKKASKGEEKNDGVEQKSKSGTPFEKEATPVLPANEAVKDTLTETSNEKSTSEAENTKRLFLEQVRLRKAAMERKKNGLISETEKKQETSNHDNTDTTKPNSVIESEPIKEAPKPTGEANEVVIDGKSGASVKTPQHVTGSVTKSVTFNEPENESSSQDVDELVKDDDTTEISD
With B1, the binding entry in test [1] was “no binding”; in test [2] it was “binds”; in test [3], “no binding”; in [4] it was “no binding”; in [5], “no binding”; in test [6], “binds”. In addition, the binding entry in test [7] is listed as “binds”; in test [8], “binds”; in test [9], “binds”; in [10], “binds weakly”; in test [11] it was “binds”; in [12], “binds”. Also, the results for the binding entry in test [13], in [14] and in [15] were “binds”, “no binding” and “binds”, respectively.
